Among all 140,000 compounds or so, about 240 (0.17%) were called active. The inconclusive results got no clear call from the source; some entries with a clear call stand among them for comparison. Calls come from the whole dose curve; as a rule, active = well fitted inhibition curve with a large enough effect; inconclusive = small, poorly fitted or top-dose-only effect; inactive = no such curve, though single readings can be large or run the other way. Where the call is inconclusive, the potency comes from a doubtful curve fit.
Test: Primary qHTS assay for inhibitors of alpha-synuclein gene (SNCA) expression; note: nearly all actives have a fitted effect of over 45% in size;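 for activity change, negative = inhibition: plate controls were DMSO cells for no effect and cell-free wells for full effect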
Details: HEK-293 SNCA-luciferase knock-in, luminescence, 24 h; activity change, negative = inhibition: at 57.2 µM (top of the series) unless noted
Potency is the fitted concentration of half-maximal effect; tags give direction and shape of the fitted curve.

Potency, active:
O=C(Nc1cn[nH]c1-c1nc2ccc(CN3CCOCC3)cc2[nH]1)NC1CC1 24.1 µM, CCOc1ccccc1CN1CCC([C@@H]2CNC[C@H]2CO)CC1 25.1 µM

Potency, inconclusive:
Nc1ncnc2c1c(I)cn2[C@@H]1C[C@H](N)[C@@H](O)[C@H]1O 22.4 µM [inhibitor, single point], CCN(Cc1ccccc1)S(=O)(=O)c1ccc(N2CCCCS2(=O)=O)cc1 0.158 µM [inhibitor, partial curve, poor fit], O=C(C1CC1)N1CC(c2nnc(-c3ccncc3)o2)C2(CCOCC2)C1 (stereo not given) 3.16 µM [inhibitor, single point], Cc1cc(S(=O)(=O)NCCc2csc(-c3cccc(F)c3)n2)ccc1F 14.1 µM [inhibitor, partial curve, poor fit], COc1ccc(C(=O)N2CCCC(CN3CCC(C)CC3)CC2)cc1 (stereo not given) 7.94 µM [inhibitor, full curve], O=C1NCc2ccccc2CC12CCCN2Cc1ccc(F)cc1F (stereo not given) 10 µM [inhibitor, single point], O=C1Nc2ccccc2CC12CCCN2Cc1ccc(Cl)cc1 (stereo not given) 44.7 µM [inhibitor, single point], O=C(CCCc1ccccc1)N1CCn2c(nnc2[C@@H]2C[C@@H](O)CN2Cc2ccccc2)C1 39.8 µM [inhibitor, single point], COc1cccc(N2C(=O)NC(=NC3CCCCC3)C23CCCN(Cc2ccc(N(C)C)cc2)C3)c1 (stereo not given) 39.8 µM [inhibitor, single point], Cc1ccc(C(=O)Nc2cc(-c3nc4cc(Cl)ccc4o3)ccc2C)c(C)c1 0.178 µM [inhibitor, full curve, poor fit], O=C(c1cnn(-c2ccc(F)cc2)c1-n1cccc1)N1CCN(c2cccc(Cl)c2)CC1 1.78 µM [inhibitor, partial curve, poor fit], COc1ccc(CN2CCc3nc(N4CCN(c5ccc(F)cc5)CC4)ncc3C2)c(OC)c1OC 25.1 µM [inhibitor, single point], CC(C)c1ccc(C(=O)CC2(O)C(=O)N(CCc3ccccc3)c3ccc(Cl)cc32)cc1 (stereo not given) 28.2 µM [inhibitor, partial curve, poor fit], CNC(=O)C1CCC(Cn2c(=O)c3sccc3n(CC(=O)Nc3cc(C)cc(C)c3)c2=O)CC1 (stereo not given) 7.08 µM [inhibitor, single point], CC(C)NC(=O)NC[C@H]1O[C@@H](CC(=O)N2CCN(c3ccccc3)CC2)[C@H](O)[C@@H]1O 56.2 µM [inhibitor, single point], CC1CCCCN1CCCNC(=O)c1sc2ncccc2c1-n1cccc1 (stereo not given) 39.8 µM [inhibitor, single point], COc1ccc(-n2nc(C3CCCN(C(=O)c4ccc(C(F)(F)F)cc4)C3)[nH]c2=O)cc1 (stereo not given) 39.8 µM [inhibitor, single point], COC1CCOC2(CCN(C(=O)c3cc(F)ccc3F)CC2)C1 (stereo not given) 1.58 µM [inhibitor, partial curve, poor fit], Cc1cc(S(=O)(=O)Nc2ccc3oc4c(c3c2)CCCC4)ccc1Cl 44.7 µM [inhibitor, single point], Cc1ccc(-n2nnnc2CNC(=O)C2CC(=O)N(c3ccccc3)C2)cc1C (stereo not given) 1 µM [inhibitor, partial curve, poor fit], O=C(Cc1ccc(Cl)cc1)N[C@H]1[C@H](O)[C@H](O)C[C@@H]1c1cccnc1 3.55 µM [inhibitor, partial curve, poor fit], Cc1ccc(Cl)cc1N1CCN(C(=O)c2noc3c2CCCC3)CC1 39.8 µM [inhibitor, single point], Cc1ccc(-c2ncc(C(=O)NCc3ccccc3Cl)c(-c3ccncc3)n2)cc1 12.6 µM [inhibitor, partial curve, poor fit], O=C1Cc2c(-c3ccc(CO)cc3)n[nH]c2CN1CC1CCOCC1 56.2 µM [inhibitor, single point], Cc1ccc2nc3c(c(Nc4ccc(C)c(C)c4)c2c1)CCC3 14.1 µM [inhibitor, single point], Cc1ccc(S(=O)(=O)N2CC[C@H](c3nc4ccccc4[nH]3)C2)cc1 12.6 µM [inhibitor, single point], CC1(CCCCc2ccccc2)COc2ccc(C(=O)NC3CCC(O)CC3)cc2N1 (stereo not given) 63.1 µM [inhibitor, single point], O=C([C@@H]1C[C@H](F)CN1S(=O)(=O)c1cc(F)ccc1F)N1CCc2ccccc2C1 25.1 µM [inhibitor, single point], COc1cccc(CC(=O)Nc2ccc3nc(Nc4cccc(C(F)(F)F)c4)cc(C)c3c2)c1 39.8 µM [inhibitor, single point], COc1ccc(S(=O)(=O)N2CCC(OCCOc3ccccc3)CC2)cc1 39.8 µM [inhibitor, single point], Cc1cc(C)cc(NC(=S)N[C@H]2CO[C@H]3[C@@H]2OC[C@H]3O)c1 56.2 µM [inhibitor, single point], CCOc1ccc(CCNC(=O)c2nn(C)c3c2CSc2ccc(C)cc2-3)cc1OCC 31.6 µM [inhibitor, single point], COCC(=O)N[C@@H]1CN(C(=O)C2CC2)CC[C@@H]1c1nc(C)no1 1.78 µM [inhibitor, partial curve, poor fit], COc1ccc(C(=O)N2CCC(c3nc(C4CCOCC4)no3)CC2)cn1 8.91 µM [inhibitor, single point], O=C1CN(C(=O)CCC(=O)N2CCc3nc4cc(-c5ccccc5)[nH]n4c(=O)c3C2)c2ccccc2N1 20 µM [inhibitor, partial curve, poor fit], COc1ccc(CCN(CC2CCN(C)CC2)C(=O)C(C)N2CCOCC2)cc1 (stereo not given) 2.24 µM [inhibitor, partial curve, poor fit], O=C(c1ccc2[nH]ccc2c1)N1CCCN(c2cc(-c3ccc(Br)cc3)[nH]n2)CC1 39.8 µM [inhibitor, partial curve, poor fit], CCOc1ccc(C2NC(=O)N(CCOC)C3=C2C(=O)OC3)cc1 (stereo not given) 11.2 µM [inhibitor, partial curve, poor fit], CN1C[C@H](N(C)C)CCC[C@@H](C(=O)NCc2cc(F)cc(F)c2)CC1=O 2.82 µM [inhibitor, full curve, poor fit], COc1ccc(-c2cc(C(=O)NC3CCNCC3)c3c(C)nn(-c4ccccc4)c3n2)cc1 39.8 µM [inhibitor, single point], Cc1ccccc1NC(=O)c1nc(S(C)(=O)=O)ncc1N(Cc1ccco1)Cc1sccc1C 22.4 µM [inhibitor, partial curve, poor fit]

Activity change, negative = inhibition, inactive:
CCCc1noc(-c2cccn3c(CNC(=O)c4ccc(C(C)(C)C)cc4)nnc23)n1 5.52%, CCNC(=O)NC1(CC2CC2)CCN(C(=O)NCCc2ccccc2)CC1 0.617%, O=C(/C=C/c1ccc(O)c(O)c1)OCCc1ccccc1 43.7%, Cc1nn2c(c1-c1cccnc1N1CCOCC1)N(C(=O)COc1ccccc1)CCC2 12.1% [at 87.6 µM], CN(Cc1ccccc1)Cc1ccc(-c2ccccc2)cc1 11.5% [at 87.6 µM], O=C(NCc1cccc(F)c1)C1CCCN(c2nccc(Nc3ccccc3F)n2)C1 (stereo not given) -18%, O=C(NCc1nnc2n1C(C(=O)O)CC2)c1ccccc1 (stereo not given) 11% [at 87.6 µM], O=C(CCc1ccccc1)N1CCCC2(C1)Nc1cccnc1NC2=NC1CCCC1 (stereo not given) 19%, COc1ncccc1-c1cccc(COc2ccc3c(cnn3CC[S+](C)(=O)[O-])c2)c1 27.1% [at 87.6 µM], Cc1cc(C)n2nc(CC(=O)NC[C@@H]3C[C@H](F)CN3)nc2n1 5.38%, O=C(c1ccco1)N1CC(Oc2ccccc2-c2nc(-c3ccccc3)no2)C1 -26.4%, O=C(NCc1ccc(F)c(F)c1)c1ccc2nc(-c3ccncc3)oc2c1 7.32%, CC1(CNc2ccccc2)COc2ccc(C(=O)NCc3ccc(F)cc3)cc2N1 (stereo not given) -27.8% [at 87.6 µM], OCC1CN(c2ncccn2)CC12CCN(Cc1cccc3[nH]ccc13)CC2 (stereo not given) 37.4%, COc1ccc(NS(=O)(=O)c2ccc3c(c2)[C@H]2C=CC[C@H]2[C@@H](c2ccc(C(=O)O)cc2)N3)cc1 17.9%, COc1ccc(-c2ccc3nnc(CNC(=O)c4ccc(C#N)cc4)n3n2)cc1 1.34%, CCOC(=O)c1cc2c(=O)n3ccccc3nc2n(Cc2ccco2)c1=NC(=O)c1cccc(Br)c1 2.36%, CN(CC(=O)N1CCc2nc3cc(-c4ccccc4)[nH]n3c(=O)c2C1)S(=O)(=O)c1cccs1 -30.2%, O=C(NCc1cccnc1)[C@@H]1C[C@@H](O)CN1C1CCN(C(=O)Cc2ccccc2)CC1 -5.76%, COc1ccc(CN2CCN3C(=O)N(Cc4ccc(C)cc4)C[C@H]3C2)cc1 -27.7% [at 87.6 µM], CNCCN1C(=O)CC[C@H]2CN(C(=O)Cc3cccs3)CC[C@H]21 8.07%, O=C(Nc1cccc(-c2ccc(N3CCOCC3)nn2)c1)Nc1cc(Cl)ccc1Cl 41.8%

Source: PubChem BioAssay AID1671194 (National Center for Advancing Translational Sciences (NCATS), 2021)
